About 450 (0.94%) of roughly 48,000 compounds were called active. About 19% were inconclusive and are not listed. Calls follow the shape of the dose curve; as a rule, active = well fitted inhibition curve with a large enough effect; inconclusive = small, poorly fitted or top-dose-only effect; inactive = no such curve, though single readings can be large or run the other way. This is one part of the list.
Potency is read from the fitted curve at half-maximal effect.

A short description of the experiment: Primary qHTS for Identification of Small Molecule Inhibitors of Huntingtin Promoter Activity. Also: nearly all actives have a fitted effect of over 50% in size. As to conditions: HEK293 HTT promoter firefly luciferase reporter (activity 0% = vehicle and -100% = no light), 24 h; series mostly up to 57.5 µM; activity change, negative = inhibition: at the top concentration. Summed up: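 Firefly luciferase readout (Dual-Glo, 10 min RT) after 24 h, 37 °C compound exposure (final up to 57.5 uM) of HEK293 reporter cells cultured 24 h beforehand; PTC124 at 50 uM final as control inhibitor; activity scaled vehicle 0%, zero RLU -100%.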
On the technique in general: Quantitative high-throughput screening tests each substance at several concentrations.
Consider `O=S(=O)(NCC(c1ccco1)N1CCOCC1)c1ccc(Cl)cc1` (stereo not drawn), for which the “activity change, negative = inhibition” value is inactive: -7.54%.
Turning to `Cc1ccccc1NC(=O)C1CCN(S(=O)(=O)c2ccccc2)CC1`, the “activity change, negative = inhibition” value was inactive: -14.1%.
For the compound `O=C(Nc1ccccc1C(F)(F)F)Nc1c[nH]c(=O)[nH]c1=O`, the “activity change, negative = inhibition” value is inactive: 2.51%.
In the case of `COc1ccc(Nc2c(-c3ccco3)nc3cccc(C)n23)cc1`, the “activity change, negative = inhibition” value is inactive: -32.8%.
The same measure, in the same setting: the same measure for `CCN(CC)CC(=O)Nc1c(C)cccc1C(=O)OC`: inactive: -0.293%; for `Cc1ccc2c(C)c(C(=O)N3CCC(c4nc5ccccc5s4)CC3)oc2c1C`: inactive: 23.1%.
As to `Cc1c(C(=O)OC2CCCCC2)[nH]c2c1C(=O)CC(c1ccccc1)C2` (stereo not drawn), the “activity change, negative = inhibition” value is inactive: -12.4%.
With `CCN(CC)S(=O)(=O)c1ccc2c(c1)N(CC(=O)NCc1ccc(F)cc1)C(=O)CO2`, the “activity change, negative = inhibition” value was inactive: -14.9%.
As to `Cc1ccc2oc(=O)c3cnn(CC(=O)N4CCN(c5cccc(C(F)(F)F)c5)CC4)c3c2c1`, the “activity change, negative = inhibition” value was inactive: 5.46%.
The same measure, in the same setting: the value for `CCC(C)NC(=O)CSc1nc2c(sc3ccccc32)c(=O)n1CCc1ccccc1` (stereo not drawn) was inactive: -5.39%; that for `O=S(=O)(c1cccc(C(F)(F)F)c1)N1CCC(Oc2ccc(-n3cnnn3)cc2)CC1` was inactive: -23.8%.
Regarding `COc1ccc(NC(=O)C2=C(C)Nc3c(C(=O)Nc4ccc(C)cc4)cnn3C2c2cc(OC)ccc2OC)cc1` (stereo not drawn), the “activity change, negative = inhibition” value was inactive: -6.45%.
Consider `COc1cccc(NC(=O)Cn2c(=O)n(Cc3ccccc3)c(=O)c3c2c2cc(C)ccc2n3C)c1`, for which the “activity change, negative = inhibition” value is inactive: 3.91%.
For the compound `CCCN1CCc2nc(SCC(=O)Nc3ccc(C)c(Cl)c3)[nH]c(=O)c2C1`, the “activity change, negative = inhibition” value was inactive: 35%.
For `CCOc1ccc(C(=O)N2CCC(c3nc(-c4ccc(S(=O)(=O)N5CCCC5)cc4)no3)CC2)cc1`, the “activity change, negative = inhibition” value was inactive: -21.9%.
On the same count and under the same terms, the value for `c1ccc(CSc2nnc(C3CCNCC3)o2)cc1` was inactive: -6.43%; that for `COC(=O)c1ccc(NC(=O)CCn2cccn2)cc1` was inactive: 23.3%.
`Cc1ccc(C(C)C)c(OCC(=O)Nc2cccc(-c3nc4ncccc4o3)c2)c1`: the “activity change, negative = inhibition” value was inactive: -20.6%.
On to `CCOc1ccc(-c2cc3c(=O)n(Cc4nc(-c5ccc(OC)cc5OC)oc4C)ccn3n2)cc1Cl`, for which the “activity change, negative = inhibition” value was inactive: 32.2%.
Regarding `COc1cccc(Oc2nc3c(c(=O)n(Cc4ccccc4Cl)c(=O)n3C)n2C)c1`, the “activity change, negative = inhibition” value was inactive: -18.4%.
For `COc1ccccc1NC(=O)c1nnn(-c2ccc(F)cc2)c1C`, the “activity change, negative = inhibition” value is inactive: 32.2%.
On to `Cc1cc(F)ccc1NC(=O)C(C(C)C)N1Cc2ccccc2C1=O` (stereo not drawn), for which the “activity change, negative = inhibition” value was inactive: 30.5%.
For `COc1ccc(CNC(=O)c2ccc3c(c2)N(Cc2ccccc2)C(=O)c2ccccc2S3=O)cc1` (stereo not drawn), the “activity change, negative = inhibition” value was inactive: -7.53%.
`CC(=O)Nc1ccc(S(=O)(=O)NC2=NCN(C(C)C)CN2)cc1`: the “activity change, negative = inhibition” value was inactive: -14.7%.
As to `COc1ccc(C(=O)N2CC(=O)Nc3ccc(C)cc3C2c2ccc(F)cc2)c(OC)c1` (stereo not drawn), the “activity change, negative = inhibition” value is inactive: -18.5%.
On to `CN(CC(=O)NCc1ccccc1Cl)S(=O)(=O)c1ccc2c(c1)c(=O)n(C)c(=O)n2C`, for which the “activity change, negative = inhibition” value is inactive: -9.25%.
For the compound `Cc1sc2ncn(CC(=O)N3CCN(c4ccccc4F)CC3)c(=O)c2c1S(=O)(=O)N1CCN(c2ncccn2)CC1`, the “activity change, negative = inhibition” value is inactive: -10.5%.
The same measure, in the same setting: the value for `Cc1ccc(Cl)cc1N1CCN(C(=O)Cc2c(C(=O)O)c(C)cn2C)CC1` was inactive: -16.9%; that for `O=c1c(-c2cc(-c3ccc(Cl)cc3)nc3c2COc2ccccc2-3)coc2ccccc12` was inactive: -8.93%; that for `CCC(=O)N1CCc2cc(Br)cc(S(=O)(=O)CCC(=O)NCCc3ccc(C)cc3)c21` was inactive: 1.75%.
`CNC(=O)C1CCC(Cn2c(=O)c3sccc3n(CC(=O)Nc3cc(F)ccc3F)c2=O)CC1` (stereo not drawn): the “activity change, negative = inhibition” value is inactive: -17.7%.
As to `CC(=O)Nc1cccc(NC(=O)CSc2cn(CC(=O)N3CCCCCC3)c3ccccc23)c1`, the “activity change, negative = inhibition” value is inactive: -20.2%.
For the compound `CCOC(=O)c1cccc(NC(=O)N2CCC(CN3CCCCCC3)CC2)c1`, the “activity change, negative = inhibition” value was inactive: -8.3%.
The same measure, in the same setting: the value for `O=C(Nc1ccc2oc(-c3cccc(Cl)c3Cl)nc2c1)c1cccc(Br)c1` was inactive: -14.1%; that for `O=[N+]([O-])c1cc(-c2nc(-c3ccncc3)no2)ccc1NCc1ccccc1` was inactive: -1.55%; that for `COc1cn(CC(=O)Nc2cc(C)ccc2C)c(CN2CCCCC2)cc1=O` was inactive: -19.5%.
Turning to `COc1ccccc1NC(=O)C1=C(C)Nc2nc(SCc3ccccc3Cl)nn2C1c1ccncc1` (stereo not drawn), the “activity change, negative = inhibition” value was inactive: -14.4%.
In the case of `CC(=O)c1c(C)oc2ccc(N(C(=O)c3ccncc3)S(=O)(=O)c3ccc(C)cc3C)cc12`, the Potency was active: 28.2 µM.
Regarding `CCOc1ccc(C(=O)c2cn(CC(=O)Nc3cc(OC)ccc3OC)c3cc(OC)c(OC)cc3c2=O)cc1`, the “activity change, negative = inhibition” value was inactive: -14.4%.
The same measure, in the same setting: the value for `COc1ccc(-c2ccc(=O)n(CC(=O)NCCc3ccccc3)n2)cc1` was inactive: 9.62%.
For the compound `O=C(O)c1cccnc1`, the activity change, negative = inhibition result was “inactive”.
Still for that read-out and setting: the same measure for `CCc1ccc(OCCSc2nc(-c3cccc(C)c3)nc3cc(=O)[nH]n23)cc1`: inactive: 0.505%; for `COc1ccc(NC(=O)CCSc2nc(-c3ccco3)cc(C(F)(F)F)n2)cc1OC`: inactive: -21.5%.
On to `COc1ccc(NCc2nnc3n2CCCCC3)c(OC)c1`, for which the “activity change, negative = inhibition” value is inactive: -9.67%.
As for `O=C(CN1C(=O)C2(SCC(=O)N2c2ccc(F)cc2)c2ccccc21)NCCc1ccccc1` (stereo not drawn), the “activity change, negative = inhibition” value was inactive: -10.6%.
Same read-out and setting: the same measure for `Cc1cc(C)cc(Nc2cc(C(=O)NCc3ccccc3)c3ccccc3n2)c1`: inactive: -8.05%.
Take `Cc1cc(C)c(NC(=O)C(C)n2nnc3sc(-c4ccccc4)cc3c2=O)c(C)c1` (stereo not drawn): the “activity change, negative = inhibition” value was inactive: 0.188%.
With `CCOc1cc(CNCCSc2nnnn2-c2ccccc2)ccc1OC`, the “activity change, negative = inhibition” value was inactive: -28.9%.
